# Reference: publication PMC4081100
# This is a selection; strong and weak results do not stand in their true shares. For some of these results: At the low end of the ranking the order means little. The list shows a part of the results. For some of these results: The source does not settle which construct or isoform was used.
# Assays:
# Assay in all cases: universal protein binding microarray (PBM)
# Conditions in all cases: transcription factors of Arabidopsis thaliana; high values mean tight binding; most listed sequences are background and not binding sites; double strand, one strand shown
# GST-ANAC092(1-176) = molecular target: T1, GST-ANAC092(1-176) (UniProt Q9FKA0)
# T1 sequence: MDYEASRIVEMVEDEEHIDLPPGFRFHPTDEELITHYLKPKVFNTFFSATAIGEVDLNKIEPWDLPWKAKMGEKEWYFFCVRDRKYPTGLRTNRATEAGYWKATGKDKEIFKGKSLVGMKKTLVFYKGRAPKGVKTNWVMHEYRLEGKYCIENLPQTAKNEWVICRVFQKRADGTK
# GST-NTL6(1-168) = GST-NTL6(1-168) (UniProt Q9SCK6)
# Chain of UniProt Q9SCK6 (Q9SCK6 1-168): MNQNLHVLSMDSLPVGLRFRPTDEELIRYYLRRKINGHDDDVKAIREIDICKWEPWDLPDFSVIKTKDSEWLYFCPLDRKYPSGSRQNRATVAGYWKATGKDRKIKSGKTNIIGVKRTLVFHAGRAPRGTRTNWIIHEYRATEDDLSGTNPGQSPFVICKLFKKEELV
# GST-ANAC019 NAC domain = molecular target: T2, GST-ANAC019 NAC domain (UniProt Q9C932)
# T2 sequence: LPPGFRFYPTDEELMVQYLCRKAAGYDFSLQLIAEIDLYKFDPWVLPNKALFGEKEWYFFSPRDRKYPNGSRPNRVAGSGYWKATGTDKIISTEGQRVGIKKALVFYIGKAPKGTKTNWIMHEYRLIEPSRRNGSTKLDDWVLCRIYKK
# GST-ANAC055(1-171) = molecular target: T3, GST-ANAC055(1-171) (UniProt Q9LDY8)
# T3 sequence: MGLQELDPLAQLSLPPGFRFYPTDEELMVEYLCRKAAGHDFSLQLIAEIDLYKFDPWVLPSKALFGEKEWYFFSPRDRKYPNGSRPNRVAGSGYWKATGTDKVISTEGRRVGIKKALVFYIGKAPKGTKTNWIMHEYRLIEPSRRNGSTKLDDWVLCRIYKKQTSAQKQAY
# GST-ATAF1 NAC domain = molecular target: T4, GST-ATAF1 NAC domain (UniProt Q39013)
# T4 sequence: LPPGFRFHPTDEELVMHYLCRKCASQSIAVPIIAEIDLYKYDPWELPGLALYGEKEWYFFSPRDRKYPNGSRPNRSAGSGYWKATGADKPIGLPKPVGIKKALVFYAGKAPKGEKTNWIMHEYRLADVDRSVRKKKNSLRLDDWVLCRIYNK
# GST-NAP(1-166) = molecular target: T5, GST-NAP(1-166) (UniProt O49255)
# T5 sequence: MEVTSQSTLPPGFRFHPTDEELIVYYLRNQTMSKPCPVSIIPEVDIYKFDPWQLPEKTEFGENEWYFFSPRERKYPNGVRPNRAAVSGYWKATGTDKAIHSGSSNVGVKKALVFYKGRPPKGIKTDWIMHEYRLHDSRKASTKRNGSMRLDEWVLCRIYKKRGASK
# GST-NST2(1-184) = molecular target: T6, GST-NST2(1-184) (UniProt Q9M274)
# T6 sequence: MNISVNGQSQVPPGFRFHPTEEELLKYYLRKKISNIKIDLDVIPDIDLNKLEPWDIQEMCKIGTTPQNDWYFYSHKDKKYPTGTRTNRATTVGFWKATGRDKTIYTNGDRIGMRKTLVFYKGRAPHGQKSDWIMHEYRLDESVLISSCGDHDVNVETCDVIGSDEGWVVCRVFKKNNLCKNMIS
# GST-NTL8 NAC domain = molecular target: T7, GST-NTL8 NAC domain (UniProt Q9XIN7)
# T7 sequence: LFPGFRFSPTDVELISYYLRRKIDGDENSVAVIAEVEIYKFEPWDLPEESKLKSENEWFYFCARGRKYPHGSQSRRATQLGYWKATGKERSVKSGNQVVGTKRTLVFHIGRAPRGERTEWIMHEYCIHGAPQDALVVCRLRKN
# GST-SND1(1-203) = molecular target: T8, GST-SND1(1-203) (UniProt Q9LPI7)
# T8 sequence: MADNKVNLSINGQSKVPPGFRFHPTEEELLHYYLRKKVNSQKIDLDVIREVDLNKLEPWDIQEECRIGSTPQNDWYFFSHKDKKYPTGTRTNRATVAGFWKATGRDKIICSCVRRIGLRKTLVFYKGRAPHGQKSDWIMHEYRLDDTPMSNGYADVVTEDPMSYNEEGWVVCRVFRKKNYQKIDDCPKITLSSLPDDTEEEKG
# GST-VND3 NAC domain = molecular target: T9, GST-VND3 NAC domain (UniProt Q9FH59)
# T9 sequence: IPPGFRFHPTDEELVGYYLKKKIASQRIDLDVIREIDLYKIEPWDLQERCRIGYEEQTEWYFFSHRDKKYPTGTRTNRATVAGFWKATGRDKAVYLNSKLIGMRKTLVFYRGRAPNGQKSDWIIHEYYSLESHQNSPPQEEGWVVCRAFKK
# GST-VND7 NAC domain = molecular target: T10, GST-VND7 NAC domain (UniProt Q9C8W9)
# T10 sequence: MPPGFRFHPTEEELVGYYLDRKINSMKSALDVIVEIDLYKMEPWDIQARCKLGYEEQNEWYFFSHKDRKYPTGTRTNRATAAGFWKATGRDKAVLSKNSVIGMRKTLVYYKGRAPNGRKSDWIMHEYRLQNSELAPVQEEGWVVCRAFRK
# [1] = molecular target: T11, GST-VOZ2 (Arabidopsis thaliana) (UniProt Q9SLB9)
# T11 sequence: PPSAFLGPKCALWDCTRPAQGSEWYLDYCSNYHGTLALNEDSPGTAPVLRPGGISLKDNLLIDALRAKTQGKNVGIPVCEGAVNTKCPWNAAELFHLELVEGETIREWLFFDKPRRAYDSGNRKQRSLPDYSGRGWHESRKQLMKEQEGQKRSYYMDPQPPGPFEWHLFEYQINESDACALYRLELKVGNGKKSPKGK
# [2] = molecular target: T12, GST-ANAC092(1-285) full length (UniProt Q9FKA0)
# T12 sequence: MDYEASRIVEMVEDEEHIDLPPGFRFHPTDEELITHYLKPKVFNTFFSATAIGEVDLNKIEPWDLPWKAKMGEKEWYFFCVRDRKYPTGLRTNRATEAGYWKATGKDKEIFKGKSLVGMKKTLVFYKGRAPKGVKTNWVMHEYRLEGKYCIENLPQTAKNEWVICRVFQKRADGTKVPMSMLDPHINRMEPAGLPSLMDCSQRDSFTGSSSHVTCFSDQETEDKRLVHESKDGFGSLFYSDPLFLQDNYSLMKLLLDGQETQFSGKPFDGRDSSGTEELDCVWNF
Sequence,binding signal (GST-ANAC092(1-176)),binding signal (GST-NTL6(1-168)),binding signal (GST-ANAC019 NAC domain),binding signal (GST-ANAC055(1-171)),binding signal (GST-ATAF1 NAC domain),binding signal (GST-NAP(1-166)),binding signal (GST-NST2(1-184)),binding signal (GST-NTL8 NAC domain),binding signal (GST-SND1(1-203)),binding signal (GST-VND3 NAC domain),binding signal (GST-VND7 NAC domain),binding signal [1],binding signal [2]
ACGGTCAA,-0.00836 E-score,-0.124 E-score,-0.0598 E-score,-0.0757 E-score,-0.173 E-score,0.00494 E-score,-0.0941 E-score,-0.0031 E-score,-0.0503 E-score,-0.165 E-score,-0.148 E-score,-0.129 E-score,–
CAGGGTCA,-0.0799 E-score,-0.125 E-score,-0.129 E-score,-0.182 E-score,-0.164 E-score,-0.0764 E-score,-0.186 E-score,0.0102 E-score,-0.00298 E-score,-0.221 E-score,-0.228 E-score,0.00269 E-score,-0.0728 E-score
CGGGTCAG,-0.0773 E-score,-0.175 E-score,-0.135 E-score,-0.242 E-score,-0.268 E-score,-0.14 E-score,-0.147 E-score,0.0402 E-score,-0.0786 E-score,-0.235 E-score,-0.0849 E-score,-0.0846 E-score,-0.24 E-score
AGTCAGAA,0.0246 E-score,0.0126 E-score,-0.0146 E-score,-0.00859 E-score,0.0283 E-score,–,–,0.0235 E-score,0.101 E-score,-0.0781 E-score,0.0143 E-score,-0.139 E-score,–
CGGGGTCA,-0.0783 E-score,-0.0423 E-score,0.00449 E-score,-0.223 E-score,-0.158 E-score,-0.1 E-score,-0.0117 E-score,0.107 E-score,-0.0173 E-score,-0.269 E-score,-0.185 E-score,0.0444 E-score,-0.0595 E-score
CCGGTCAG,-0.145 E-score,-0.181 E-score,-0.084 E-score,-0.29 E-score,-0.21 E-score,-0.13 E-score,-0.166 E-score,-0.0522 E-score,-0.203 E-score,-0.268 E-score,-0.198 E-score,-0.0909 E-score,-0.232 E-score
CCAGGTCA,-0.119 E-score,-0.127 E-score,-0.0547 E-score,-0.261 E-score,-0.269 E-score,-0.133 E-score,-0.176 E-score,-0.0765 E-score,-0.227 E-score,-0.27 E-score,-0.181 E-score,-0.157 E-score,-0.283 E-score
GTCGTTGA,0.0276 E-score,0.0069 E-score,-0.0369 E-score,-0.0293 E-score,-0.0556 E-score,0.0448 E-score,–,-0.0726 E-score,0.0146 E-score,-0.0502 E-score,0.0176 E-score,-0.0097 E-score,–
TGAGTCAA,-0.0222 E-score,-0.0353 E-score,0.0445 E-score,-0.148 E-score,-0.0618 E-score,-0.0903 E-score,-0.0322 E-score,-0.0301 E-score,0.0422 E-score,0.0214 E-score,-0.0481 E-score,0.0123 E-score,–
ATCGGTCA,-0.133 E-score,-0.134 E-score,-0.217 E-score,-0.0912 E-score,-0.0954 E-score,0.00931 E-score,-0.11 E-score,-0.119 E-score,-0.144 E-score,-0.0835 E-score,-0.174 E-score,-0.074 E-score,-0.131 E-score
CGTCAACC,–,-0.115 E-score,-0.0277 E-score,-0.116 E-score,-0.0644 E-score,-0.0642 E-score,-0.00826 E-score,-0.105 E-score,0.0331 E-score,-0.18 E-score,-0.122 E-score,0.0181 E-score,–
GGTCAAAC,0.0595 E-score,-0.0163 E-score,0.0385 E-score,-0.00958 E-score,–,-0.125 E-score,–,-0.0216 E-score,-0.0399 E-score,-0.0822 E-score,-0.00052 E-score,0.00553 E-score,0.0869 E-score
AGTCAACT,-0.0348 E-score,-0.00897 E-score,–,-0.0101 E-score,–,-0.0835 E-score,-0.039 E-score,-0.0282 E-score,0.0114 E-score,0.0667 E-score,0.0783 E-score,0.00936 E-score,0.0028 E-score
GAAAAGTC,0.00391 E-score,-0.00967 E-score,–,0.0314 E-score,–,0.145 E-score,–,–,0.011 E-score,-0.0111 E-score,-0.0441 E-score,-0.0164 E-score,-0.05 E-score
GGTCAAGA,0.0459 E-score,-0.0123 E-score,–,-0.0714 E-score,-0.0659 E-score,0.034 E-score,–,-0.0584 E-score,0.0253 E-score,-0.0172 E-score,-0.128 E-score,-0.0971 E-score,–
GAATTGAC,-0.0196 E-score,0.0313 E-score,-0.00835 E-score,0.0993 E-score,–,-0.0676 E-score,–,0.051 E-score,0.047 E-score,0.0444 E-score,0.0199 E-score,0.0296 E-score,–
AGTTGACC,-0.0113 E-score,–,-0.0473 E-score,-0.0575 E-score,-0.0243 E-score,-0.00299 E-score,-0.0272 E-score,-0.0823 E-score,-0.162 E-score,-0.104 E-score,-0.0777 E-score,0.0333 E-score,-0.0465 E-score
AATTTGAC,-0.0938 E-score,-0.165 E-score,-0.0778 E-score,–,0.237 E-score,0.003 E-score,0.0346 E-score,-0.07 E-score,-0.0456 E-score,0.0556 E-score,-0.0431 E-score,0.186 E-score,0.045 E-score
CGAAGTCA,-0.0552 E-score,–,0.0496 E-score,-0.149 E-score,-0.06 E-score,-0.0384 E-score,-0.0124 E-score,–,0.0225 E-score,-0.188 E-score,-0.0145 E-score,-0.0881 E-score,-0.086 E-score
